We go through 38 compounds from the supplement of paper PMC10600219.

Structures can show the parent of a compound that is named as a salt. The full ranking holds about 2,800 compounds; the median of “cell viability relative to vehicle” is about 1.1, and the lowest 2% start at about 0.19. The list shows a part of the results.

For this test, the system named is NCI-H2228 parental. The test can be described thus: cell viability relative to vehicle (fraction of vehicle); NCI-H2228 is an ALK-positive lung cancer line and DTP means drug-tolerant persister; higher = less growth inhibition. Particulars: 100 nM; treatment time 6 days. Put shortly:
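Parental NCI-H2228 cells and drug-tolerant persister cells (made with 1000 nM of a targeted drug for 13 days) were seeded in 384-well plates. The next day, the 3114-agent TargetMol anti-cancer compound library was added at 100 nM, with DMSO as vehicle. After 6 days, ATP was read with the CellTiter-Glo 3D Cell Viability Assay. Each value is cell viability relative to vehicle-treated cells.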
In the case of `NC[C@H](CC(=O)O)c1ccc(Cl)cc1` [(R)-baclofen], the cell viability was found to be 1.19. For the compound `CC(C)(C)c1cc(C=C(C#N)C#N)cc(Br)c1O`, the cell viability worked out at 1.21. Take `CC1=C2C(=O)[C@H]3[C@@H](CC=C4C[C@@H](O)CC[C@@]43C)[C@@H]2CC[C@]12O[C@@H]1C[C@H](C)CN[C@H]1[C@H]2C` [Jervine]: the cell viability worked out at 1.09. For `O=C1CC[C@@]2(O)[C@H]3Cc4ccc(O)c5c4[C@@]2(CCN3CC2CC2)[C@H]1O5` [Naltrexone hydrochloride] the value was 0.995.

For the compound `COc1ccc2c(c1O)-c1c(OC)c(OC)cc3c1[C@H](C2)N(C)CC3` [(+)-Isocorydine hydrochloride], the cell viability stood at 1.02. In the case of `Cn1c(CCCC(=O)O)nc2cc(N(CCCl)CCCl)ccc21` [Bendamustine hydrochloride], the cell viability is 1.15. Regarding `Cc1sc2c(c1C)C(c1ccc(Cl)cc1)=N[C@@H](CC(N)=O)c1nnc(C)n1-2`, the cell viability worked out at 0.729. For `N[C@@H]1C[C@H]1c1ccccc1` [Tranylcypromine (2-PCPA) hydrochloride] the value was 1.04; for `CC1(C)C(=O)N(c2ccc(C#N)c(C(F)(F)F)c2)C(=O)N1CCCCO`, 1.27; for `Clc1ccc(OC[C@H]2CCN2)cn1` [Tebanicline hydrochloride], 1.12.

On to `COc1ccc(N(C(=O)Oc2c(C)cccc2C)c2ccnc(Nc3ccc(N4CCN(C)CC4)cc3)n2)c(OC)c1`, for which the cell viability worked out at 0.952.

Turning to `COC1=C[C@@H]2[C@@H]3Cc4ccc(OC)c(O)c4[C@]2(CCN3C)CC1=O` [Sinomenine hydrochloride], the cell viability was determined as 1.08. As to `C/C(=C\c1csc(C)n1)[C@@H]1C[C@@H]2O[C@@H]2CCC[C@H](C)[C@H](O)[C@@H](C)C(=O)C(C)(C)[C@@H](O)CC(=O)O1` [Epothilone A], the cell viability was 0.0991. Turning to `CN1[C@@H]2C[C@@H](OC(=O)[C@H](CO)c3ccccc3)C[C@H]1[C@@H]1O[C@@H]12` [Scopolamine HBr], the cell viability was determined as 1.07.

Consider `CCOC(=O)c1cncn1[C@H](C)c1ccccc1` [Etomidate], for which the cell viability amounted to 0.992. `CNC(=O)Oc1cccc2ccccc12` [Carbaryl]: the cell viability came out at 0.859.

Consider `CC(O)(CS(=O)(=O)c1ccc(F)cc1)C(=O)Nc1ccc(C#N)c(C(F)(F)F)c1` (stereo not drawn) [Bicalutamide], for which the cell viability was determined as 1.18. The value for `CN1CCc2cc3c(cc2C1C1OC(=O)c2c1ccc1c2OCO1)OCO3` (single isomer, unassigned; (+)) [(+)-Bicuculline] was 1.16. For `NCC1(CC(=O)O)CCCCC1` [Gabapentin] the value was 1.11; for `O=c1cccc2n1C[C@@H]1CNC[C@H]2C1` [Cytisine], 1.18. For the compound `O=C([O-])C(Cl)Cl.[Na+]` [Sodium Dichloroacetate], the cell viability is 1.09. The value for `CO[C@H]1C[C@H](O[C@H]2CC[C@]3(C)[C@H]4CC[C@]5(C)[C@@H](C6=CC(=O)OC6)CC[C@]5(O)[C@@H]4CC[C@]3(O)C2)O[C@H](C)[C@H]1O[C@@H]1O[C@H](CO)[C@@H](O)[C@H](O)[C@H]1O` [Periplocin] was 0.315; that for `C[C@]12CC[C@H](O)C[C@H]1CC[C@@H]1[C@@H]2CC[C@]2(C)[C@@H](c3ccc(=O)oc3)C[C@H]3O[C@]132` [Resibufogenin] was 1.03; that for `CC(=O)O[C@H]1C(=O)[C@@]2(C)[C@H]([C@H](OC(=O)c3ccccc3)[C@]3(O)C[C@H](O)C(C)=C1C3(C)C)[C@]1(OC(C)=O)CO[C@@H]1C[C@@H]2O` [Baccatin III] was 0.968. With `CC(C)(C)c1cc(C=C(C#N)C#N)cc(C(C)(C)C)c1O` [Tyrphostin 9], the cell viability was determined as 1.04. For `O=C(O)c1nn(Cc2ccc(Cl)cc2Cl)c2ccccc12` [Lonidamine] the value was 0.993; for `COc1ccc2c(c1OC)CN1CCc3cc4c(cc3C1C2)OCO4` (stereo not drawn) [Tetrahydroberberine THB], 1.1; for `O=C(O)CNC(=O)C1C(=O)N(C2CCCCC2)C(=O)N(C2CCCCC2)C1=O` [Daprodustat], 1.04. `CN(C(=O)/C=C/c1ccoc1)[C@@H]1CC[C@@]2(O)[C@H]3Cc4ccc(O)c5c4[C@@]2(CCN3CC2CC2)[C@H]1O5` [Nalfurafine hydrochloride]: the cell viability turned out to be 0.993. The value for `N#C[C@H](O[C@@H]1O[C@H](CO[C@@H]2O[C@H](CO)[C@@H](O)[C@H](O)[C@H]2O)[C@@H](O)[C@H](O)[C@H]1O)c1ccccc1` [Amygdalin] was 1.26; that for `COc1cc2c(c(OC)c1OC)-c1ccc(OC)c(=O)cc1[C@@H](NC(C)=O)CC2` [Colchicine] was 0.305; that for `CN1C[C@H](CNC(=O)OCc2ccccc2)C[C@@H]2c3cccc4c3c(cn4C)C[C@H]21` [Metergoline] was 1.07. For `CC(=O)O[C@H]1CC[C@@]2(C)C(=CC[C@@H]3[C@@H]2CC[C@]2(C)C(=O)CC[C@@H]32)C1` [Dehydroepiandrosterone acetate] the value was 1.15; for `CC(C)OC(=O)[C@H](C)N[P@](=O)(CO[C@H](C)Cn1cnc2c(N)ncnc21)Oc1ccccc1` [Tenofovir alafenamide], 1.22; for `COc1cc([C@@H]2c3cc4c(cc3[C@H](O)[C@H]3COC(=O)[C@H]23)OCO4)cc(OC)c1O` [4'-Demethylpodophyllotoxin], 0.68.

`Oc1cc(O)cc(/C=C/c2c(O)cccc2O)c1` [Gnetol]: the cell viability was found to be 1.05.

On to `CC(C)c1cccc(C(C)C)c1O` [Propofol], for which the cell viability came to 0.976. With `C[C@H](CS(C)(=O)=O)n1ccc2c(C(F)(F)F)c(C#N)ccc21`, the cell viability is 1.12.
